The record followed here is the supplement of paper PMC9446081.

In all, about 39,000 compounds went through this assay and about 220 (0.56%) showed activity. Some of the results follow.
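Note: static incubation at 37 °C against the wild-type strain, values averaged over two biological replicates.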

The subject of this assay is Escherichia coli K-12 BW25113. Description: relative growth (OD600 normalised to plate interquartile mean) (fraction); higher = less growth inhibition, active = 0.2 or less. The following applies: 50 µM; LB; incubation time: overnight (16-24 h).
Turning to `Cc1ccc(-c2ccc3c(c2)O[C@@H](CN(C)C(=O)Nc2ccc(C(F)(F)F)cc2)[C@@H](C)CN([C@H](C)CO)S3(=O)=O)cc1`, the relative growth was inactive: 1.03.

Take `C[C@@H]1CCCCO[C@@H](CN(C)C(=O)Nc2ccccc2)[C@@H](C)CN([C@@H](C)CO)C(=O)c2cc(NS(=O)(=O)c3ccccc3)ccc2O1`: the relative growth was inactive: 0.929.

For `C[C@H](CO)N1C[C@H](C)[C@@H](CN(C)S(=O)(=O)c2ccccc2)OCCCC[C@H](C)Oc2ccc(NC(=O)Nc3ccc(F)cc3)cc2C1=O`, the relative growth was inactive: 1.04.

For the compound `C[C@H]1CCCCO[C@H](CN(C)C(=O)Nc2cccc3ccccc23)[C@@H](C)CN([C@@H](C)CO)C(=O)c2cc(NC(=O)Nc3ccc4c(c3)OCO4)ccc2O1`, the relative growth was inactive: 1.01.

With `C[C@@H]1CCCCO[C@@H](CN(C)C)[C@H](C)CN([C@@H](C)CO)C(=O)c2cc(NC(=O)CCCN(C)C)ccc2O1`, the relative growth is inactive: 1.02.

Turning to `COc1cccc(S(=O)(=O)Nc2ccc3c(c2)[C@@H]2C[C@H](CC(=O)NCCc4ccccc4)O[C@H](CO)[C@@H]2O3)c1`, the relative growth is inactive: 0.963.

With `CCS(=O)(=O)N1CC[C@]2(CC1)CN([C@@H](CO)c1c2c2ccc(cc2n1C)OC)C(=O)CN1CCOCC1`, the relative growth was inactive: 0.979.

With `COc1cccc(c1)CN1C[C@]2(CCN(CC2)S(=O)(=O)C)c2c(n(c3cc(ccc23)OC)C)[C@H]1CO`, the relative growth is inactive: 1.02.

With `Cl.NCCc1ccc(O)c(O)c1`, the relative growth was inactive: 1.02.

In the case of `C[C@H](CO)N1C[C@H](C)[C@H](CN(C)C(=O)c2ccncc2)Oc2cc(C#C[C@@H](C)O)ccc2S1(=O)=O`, the relative growth is inactive: 0.999.

With `C[C@@H]1CN([C@@H](C)CO)C(=O)c2cc(NC(=O)CCC(F)(F)F)ccc2O[C@@H](C)CCCCO[C@H]1CN(C)S(=O)(=O)c1cccs1`, the relative growth is inactive: 0.999.

Turning to `C[C@@H]1CN([C@@H](C)CO)C(=O)c2cc(Br)cnc2O[C@H]1CN(C)C(=O)Nc1ccc(F)cc1`, the relative growth was inactive: 1.01.

Turning to `COc1ccc(cc1)CN1C[C@]2(CN(C2)C(=O)C2CCOCC2)c2c(n(c3cc(ccc23)OC)C)[C@@H]1CO`, the relative growth is inactive: 0.999.

For `CC(C)NC(=O)[C@@]1(c2ccc([N+](=O)[O-])cc2)CC(=O)N(CC23CC4CC(CC(C4)C2)C3)[C@@H]1c1ccc(CO)cc1I`, the relative growth was inactive: 1.03.

As to `COc1ccc2c3c([nH]c2c1)[C@@H](CO)N(CC1CCCC1)C[C@]13CCN(CC1)C(=O)c1ccc(cc1)F`, the relative growth was inactive: 0.976.

`CC1=C(/C=C/C(C)=C/C=C/C(C)=C/C=C/C=C(C)/C=C/C=C(C)/C=C/C2=C(C)CCCC2(C)C)C(C)(C)CCC1`: the relative growth is inactive: 0.988.

`O=C(C[C@H]1C[C@H]2c3cc(NS(=O)(=O)c4ccc(F)cc4)ccc3O[C@H]2[C@@H](CO)O1)NCC(F)(F)F`: the relative growth is inactive: 1.

As to `C[C@H](CO)N1C[C@H](C)[C@H](CN(C)Cc2ccncc2)Oc2c(NC(=O)C3CCOCC3)cccc2C1=O`, the relative growth was inactive: 1.01.

As for `CCS(=O)(=O)N1CC[C@]2(CC1)CN([C@@H](CO)c1c2c2ccc(cc2n1C)OC)S(=O)(=O)c1ccccc1`, the relative growth was inactive: 1.

Regarding `C=CCNc1ncnc2c1cnn2C`, the relative growth is inactive: 1.

Consider `CCOC(=O)[C@H]1CN(C(C)(C)C)C(=O)C1=O`, for which the relative growth is inactive: 1.01.

For `O=C(C[C@H]1CC[C@H]2[C@@H](COC[C@H](O)CN2S(=O)(=O)c2ccccc2)O1)N1CCOCC1`, the relative growth is inactive: 0.991.

Consider `COc1ccc(CN(C)C[C@@H]2OCCCC[C@@H](C)Oc3ccc(NS(=O)(=O)c4ccc(Cl)cc4)cc3C(=O)N([C@H](C)CO)C[C@@H]2C)cc1`, for which the relative growth was inactive: 0.995.

As for `C[C@H](CO)N1C[C@H](C)[C@H](CN(C)S(=O)(=O)c2ccc(Cl)cc2)OCCCC[C@H](C)Oc2ccc(NC(=O)NC3CCCCC3)cc2C1=O`, the relative growth is inactive: 1.02.

In the case of `CCOc1nc2cccc(C(=O)OCc3oc(=O)oc3C)c2n1Cc1ccc(-c2ccccc2-c2noc([O-])n2)cc1.[K+]`, the relative growth was inactive: 1.17.

As to `C[C@H](CO)N1C[C@H](C)[C@@H](CN(C)Cc2ccc(C(=O)O)cc2)OCCCC[C@H](C)Oc2ccc(NS(=O)(=O)c3ccc(Cl)cc3)cc2C1=O`, the relative growth is inactive: 1.01.

Turning to `Cc1c(O[C@@H]2O[C@H](COC(=O)C[C@@](C)(O)CC(=O)O)C[C@H](O)[C@H]2O)occc1=O`, the relative growth is inactive: 0.996.

`Cc1ccc(S(=O)(=O)Nc2ccc3c(c2)C(=O)N([C@H](C)CO)C[C@H](C)[C@@H](CN(C)C(=O)Nc2ccc4c(c2)OCO4)OCCCC[C@@H](C)O3)cc1`: the relative growth was inactive: 1.06.

As to `C[C@H](CO)N1C[C@H](C)[C@@H](CN(C)Cc2ccc(Cl)c(Cl)c2)OCCCC[C@H](C)Oc2ccc(NC(=O)C3CCCCC3)cc2C1=O`, the relative growth was inactive: 1.02.

Consider `CCC(=O)Nc1ccc2c(c1)C(=O)N(C)C[C@H](OC)[C@H](C)CN(C(=O)CN1CCOCC1)[C@@H](C)CO2`, for which the relative growth was inactive: 1.01.

Turning to `CO[C@@H]1CN(C)C(=O)c2ccc(NC(=O)C3CC3)cc2OC[C@H](C)N(C(=O)C2CCOCC2)C[C@@H]1C`, the relative growth is inactive: 1.

Turning to `CC(C)(C)c1cc(NC(=O)Nc2ccc(Oc3ccnc4nc(O)cnc34)cc2F)n(-c2ccccc2)n1`, the relative growth is inactive: 0.916.

With `Cc1ccc(S(=O)(=O)Nc2ccc3c(c2)C(=O)N([C@H](C)CO)C[C@H](C)[C@H](CN(C)S(=O)(=O)c2ccc(C)cc2)OCCCC[C@H](C)O3)cc1`, the relative growth was inactive: 1.03.

For the compound `Cc1noc(C)c1NC(=O)N(C)C[C@@H]1Oc2ccc(NS(=O)(=O)c3c(C)noc3C)cc2CC(=O)N([C@H](C)CO)C[C@H]1C`, the relative growth was inactive: 0.985.

Regarding `O=C(C[C@@H]1CC[C@H]2[C@@H](COC[C@@H](O)CN2S(=O)(=O)c2ccc(F)cc2)O1)N[C@@H]1CCN(Cc2ccccc2)C1`, the relative growth is inactive: 0.989.

`C[C@@H]1CN([C@H](C)CO)C(=O)c2cccc(NS(=O)(=O)c3cn(C)cn3)c2O[C@H]1CN(C)Cc1ccc(C(=O)O)cc1`: the relative growth is inactive: 1.04.

With `COc1ccc(CN(C)C[C@@H]2Oc3c(NC(=O)c4cc(C)nn4C)cccc3C(=O)N([C@H](C)CO)C[C@H]2C)cc1`, the relative growth was inactive: 1.01.

For the compound `COCCOC(=O)N1C(=O)[C@@]2(c3cc(C#CCC(C(=O)OC)C(=O)OC)ccc31)[C@H](c1ccccc1OCCO)N1[C@H](c3ccccc3)[C@H](c3ccccc3)OC(=O)[C@H]1[C@@H]2C(=O)Nc1nc2ccccc2s1`, the relative growth was inactive: 0.997.

With `O=C(C[C@@H]1CC=CCC[C@H](Cc2ccc(F)cc2)C(=O)OCCNC1=O)N[C@@H](CO)Cc1ccccc1`, the relative growth was inactive: 1.01.

`C/C(=C\CO)CC[C@H](C)CCC[C@H](C)CCCC(C)C`: the relative growth was inactive: 1.04.

Consider `C[C@H](CO)N1C[C@H](C)[C@H](CN(C)Cc2ccc(C(=O)O)cc2)Oc2c(NC(=O)C3CCOCC3)cccc2C1=O`, for which the relative growth was inactive: 0.99.

Turning to `COCCNC(=O)C[C@H]1CC[C@H]2[C@@H](COc3ccc(NS(=O)(=O)c4ccc(Cl)cc4)cc3C(=O)N2C)O1`, the relative growth is inactive: 0.979.

Turning to `C[C@H](CO)N1C[C@H](C)[C@@H](CN(C)S(=O)(=O)c2ccc(Cl)cc2)Oc2ccc(NC(=O)C3CC3)cc2C1=O`, the relative growth was inactive: 1.

As to `CC(C)CC#Cc1ccc2c(c1)O[C@H](CN(C)C(=O)NC1CCCC1)[C@@H](C)CN([C@@H](C)CO)S2(=O)=O`, the relative growth was inactive: 0.986.

On to `CN1C(=O)c2cc(NC(=O)C3CCOCC3)ccc2OC[C@H]2O[C@@H](CC(=O)NCc3ccccc3F)CC[C@@H]21`, for which the relative growth was inactive: 0.944.

Consider `C[C@H](CO)N1C[C@H](C)[C@H](CN(C)C(=O)Nc2ccc(F)cc2)Oc2ccc(NC(=O)CCCN(C)C)cc2C1=O`, for which the relative growth is inactive: 1.02.

In the case of `COc1ccccc1S(=O)(=O)N[C@H]1CC[C@@H](CCNC(=O)C2CC2)O[C@H]1CO`, the relative growth was inactive: 1.01.

In the case of `CCOC(=O)c1snc2c(=O)nc[nH]c12`, the relative growth is inactive: 1.

`C[C@H]1CN([C@@H](C)CO)C(=O)c2cc(NC(=O)NC3CCCCC3)ccc2O[C@@H]1CN(C)C(=O)Nc1cccc2ccccc12`: the relative growth is inactive: 0.853.

With `CNS(=O)(=O)c1cc(OC)ccc1OC`, the relative growth was inactive: 0.918.

`COc1ccc(NC(=O)N(C)C[C@H]2OCCCC[C@H](C)Oc3ccc(NC(=O)c4ccccc4)cc3C(=O)N([C@H](C)CO)C[C@@H]2C)cc1`: the relative growth is inactive: 1.

In the case of `COc1ccc(S(=O)(=O)N(C)C[C@H]2OCCCC[C@@H](C)Oc3ccc(NC(=O)Nc4ccc(F)cc4)cc3C(=O)N([C@H](C)CO)C[C@H]2C)cc1`, the relative growth was inactive: 1.01.

For `C[C@@H]1CN([C@H](C)CO)S(=O)(=O)c2ccc(C#CC3(O)CCCC3)cc2O[C@H]1CN(C)C(=O)c1ccccc1`, the relative growth is inactive: 0.997.

On to `COc1cccc(S(=O)(=O)N(C)C[C@H]2OCc3cnnn3CCCC(=O)N([C@H](C)CO)C[C@@H]2C)c1`, for which the relative growth was inactive: 0.961.

Turning to `CN(C)Cc1cn(CC[C@H]2CC[C@@H](NC(=O)Cc3cccnc3)[C@H](CO)O2)nn1`, the relative growth was inactive: 1.

Turning to `CC(C)CC#Cc1ccc2c(c1)O[C@@H](CN(C)C(=O)c1cnccn1)[C@H](C)CN([C@@H](C)CO)S2(=O)=O`, the relative growth was inactive: 0.997.

Turning to `C[C@@H]1CCCCO[C@H](CN(C)S(C)(=O)=O)[C@H](C)CN([C@@H](C)CO)C(=O)c2cc(NS(=O)(=O)c3ccccc3)ccc2O1`, the relative growth was inactive: 1.

For the compound `CC(=O)Nc1cc2c(cc1N)OCCO2`, the relative growth is inactive: 0.968.

For `CC(C)NC(=O)Nc1ccc2c(c1)C(=O)N([C@@H](C)CO)C[C@@H](C)[C@@H](CN(C)C(=O)Nc1cccc3ccccc13)OCCCC[C@@H](C)O2`, the relative growth is inactive: 0.992.

For the compound `C[C@H]1CN([C@@H](C)CO)C(=O)Cc2cc(NS(=O)(=O)c3cccs3)ccc2O[C@H]1CN(C)S(=O)(=O)c1ccccc1`, the relative growth was inactive: 1.01.
